# Experimental data: the supplement of paper PMC4967469
# pIC50: −log10 of the molar value. A lower IC50 marks a more sensitive line; where the fit passes the top or lowest dose, that dose stands as a limit. AUC, from the same fit, is the share of area under the viability curve across the 256-fold dose range: 1 means no effect, lower means more sensitive. Where the top dose is marked as inferred, it was calculated from the reported fits.
# Compound: CCn1cc(-c2ccnc3[nH]c(-c4cccc(CN(C)C)c4)cc23)c(-c2ccc(NC(=O)N(C)C)cc2)n1 [GSK1070916]
# Assay: Viability of human cancer cell lines after 72 h of drug (GDSC screen)
# Conditions: top dose inferred
# Method: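 Human cancer cell lines in 384-well plates, medium with 10% serum, drug for 72 h over a 256-fold dose range (nine 2-fold or five 4-fold steps up to the top dose). Adherent lines were fixed and stained with the nucleic acid dye Syto60, suspension lines read with resazurin; signal relative to control wells, capped at 0 and 100%. One two-parameter sigmoid per drug and line, fitted in a mixed model over all curves with the slope shared within a line.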
Cell Line,AUC,pIC50
"Daudi (Burkitt lymphoma, suspension, top dose 2.56 µM)",0.813,5.93
"Detroit562 (head and neck, adherent, top dose 2.56 µM)",0.98,< 5.59
"DoTc2-4510 (cervix, adherent, top dose 2.56 µM)",0.978,< 5.59
"EB2 (Burkitt lymphoma, suspension, top dose 2.56 µM)",0.798,5.96
"EB-3 (Burkitt lymphoma, suspension, top dose 2.56 µM)",0.898,< 5.59
"EBC-1 (lung squamous cell carcinoma, adherent, top dose 2.56 µM)",0.938,< 5.59
"EC-GI-10 (oesophagus, adherent, top dose 2.56 µM)",0.989,< 5.59
"EFM-19 (breast, adherent, top dose 2.56 µM)",0.904,< 5.59
"EFM-192A (breast, adherent, top dose 2.56 µM)",0.974,< 5.59
"EFO-21 (ovary, adherent, top dose 2.56 µM)",0.908,< 5.59
"EFO-27 (ovary, adherent, top dose 2.56 µM)",0.94,< 5.59
"EGI-1 (biliary tract, adherent, top dose 2.56 µM)",0.96,< 5.59
"EJM (lymphoid neoplasm, semi-adherent, top dose 2.56 µM)",0.947,< 5.59
"EKVX (lung adenocarcinoma, adherent, top dose 2.56 µM)",0.97,< 5.59
"EM-2 (chronic myeloid leukaemia, suspension, top dose 2.56 µM)",0.6,6.50
"EMC-BAC-1 (lung adenocarcinoma, adherent, top dose 2.56 µM)",0.778,5.92
"EMC-BAC-2 (lung adenocarcinoma, adherent, top dose 2.56 µM)",0.893,< 5.59
"EN (endometrium, adherent, top dose 2.56 µM)",0.777,5.88
"EPLC-272H (lung squamous cell carcinoma, adherent, top dose 2.56 µM)",0.49,6.82
"ES4 (Ewing sarcoma, adherent, top dose 2.56 µM)",0.752,6.02

Cell Line,AUC,pIC50
"ES5 (Ewing sarcoma, adherent, top dose 2.56 µM)",0.438,6.97
"ES6 (Ewing sarcoma, adherent, top dose 2.56 µM)",0.881,< 5.59
"ES7 (Ewing sarcoma, adherent, top dose 2.56 µM)",0.134,7.97
"ES8 (Ewing sarcoma, adherent, top dose 2.56 µM)",0.052,> 8.00
"ES-2 (ovary, adherent, top dose 2.56 µM)",0.989,< 5.59
"ESO26 (oesophagus, adherent, top dose 2.56 µM)",0.89,< 5.59
"ESO51 (oesophagus, semi-adherent, top dose 2.56 µM)",0.941,< 5.59
"ESS-1 (endometrium, adherent, top dose 2.56 µM)",0.936,< 5.59
"ETK-1 (biliary tract, adherent, top dose 2.56 µM)",0.895,< 5.59
"EVSA-T (breast, adherent, top dose 2.56 µM)",0.991,< 5.59
"EW-1 (Ewing sarcoma, semi-adherent, top dose 2.56 µM)",0.391,7.08
"EW-3 (Ewing sarcoma, adherent, top dose 2.56 µM)",0.889,< 5.59
"EW-7 (Ewing sarcoma, semi-adherent, top dose 2.56 µM)",0.692,6.29
"EW-11 (Ewing sarcoma, adherent, top dose 2.56 µM)",0.788,5.82
"EW-13 (Ewing sarcoma, suspension, top dose 2.56 µM)",0.687,6.24
"EW-16 (Ewing sarcoma, adherent, top dose 2.56 µM)",0.9,< 5.59
"EW-18 (Ewing sarcoma, suspension, top dose 2.56 µM)",0.145,7.95
"EW-24 (Ewing sarcoma, semi-adherent, top dose 2.56 µM)",0.993,< 5.59
"EoL-1-cell (haematopoietic neoplasm, suspension, top dose 2.56 µM)",0.812,5.93
"FADU (head and neck, adherent, top dose 2.56 µM)",0.977,< 5.59
